From the BET-seq Pho4 binding data (Le et al. 2018)
The list shows a part of the results. Values were computed here from the reads of four pooled replicates and scatter widely.

Target: T1, Pho4 (S. cerevisiae) (UniProt P07270)
T1 sequence: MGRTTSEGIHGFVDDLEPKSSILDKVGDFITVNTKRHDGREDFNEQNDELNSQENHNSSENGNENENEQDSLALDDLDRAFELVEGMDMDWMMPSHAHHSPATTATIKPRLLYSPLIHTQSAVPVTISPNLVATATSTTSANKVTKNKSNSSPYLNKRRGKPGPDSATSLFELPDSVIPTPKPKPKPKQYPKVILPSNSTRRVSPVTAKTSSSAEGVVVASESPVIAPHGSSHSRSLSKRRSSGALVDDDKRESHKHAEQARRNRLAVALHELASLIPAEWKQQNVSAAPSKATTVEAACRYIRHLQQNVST
Assay: relative binding free energy (BET-seq); higher = weaker binding
Settings: reference: library average

Row | Sequence | relative binding free energy [kcal/mol]
1 | AGTGTCACGTGGGAGC | 0.05
2 | ATAATCACGTGAAGGG | 0.26
3 | CGGGCCACGTGGTTGT | -0.04
4 | TGGCGCACGTGGTTGA | -0.14
5 | CGTTGCACGTGGTGCT | -0.01
6 | TAAATCACGTGTGCGG | 0.19
7 | TATACCACGTGGTGGG | -0.18
8 | AACGGCACGTGGAAGG | 0.12
9 | GGGGACACGTGATTGA | 0.14
10 | TGTGTCACGTGGACAG | 0.15
11 | TTGGCCACGTGTGAAT | 0.05
12 | AGTCTCACGTGGTTTG | 0.27
13 | ACAGTCACGTGGTTTT | -0.01
14 | GAGAGCACGTGTTGGG | -0.02
15 | GGAGTCACGTGAGGTG | 0.4
16 | GGCGTCACGTGGGTGC | -0.01
17 | TAAGGCACGTGCATTT | -0.17
18 | TTGAACACGTGGGTGG | -0.08
19 | TGAATCACGTGATTCG | 0.4
20 | GTTGTCACGTGTGGGA | 0.19
21 | GATATCACGTGTGTCT | 0.23
22 | GTAATCACGTGGCTTT | 0.05
23 | AGCGTCACGTGTTGTA | 0.1

Row | Sequence | relative binding free energy [kcal/mol]
24 | TTGGCCACGTGAGGAG | 0.16
25 | TGATGCACGTGGAAGA | 0.04
26 | TGACGCACGTGGGGGC | -0.18
27 | TAATGCACGTGCAGGG | -0.16
28 | CTTTCCACGTGTTAGG | 0.17
29 | GTTCGCACGTGTGCGT | -0.01
30 | GGTGTCACGTGTCTGT | 0.15
31 | CGATTCACGTGTGTAT | 0.32
32 | TTGTCCACGTGTGTTA | -0.04
33 | TGCGTCACGTGTGGGG | 0.09
34 | AGGTACACGTGATAGG | 0.24
35 | GTTTGCACGTGTGTAG | 0.05
36 | GTACCCACGTGTGGGG | -0.09
37 | GAAGTCACGTGATGTT | 0.24
38 | GAAAGCACGTGGGGAT | -0.16
39 | CAAATCACGTGGTGTG | -0.07
40 | TGGCGCACGTGCATGT | -0.17
41 | GGTTACACGTGAGGTG | 0.27
42 | TTCATCACGTGAGGGG | 0.37
43 | AAGGACACGTGTCTGG | 0.17
44 | TTAAGCACGTGTGCGG | -0.12
45 | TGCTTCACGTGTGGCG | 0.11
46 | TTGGGCACGTGCACTG | -0.1

Row | Sequence | relative binding free energy [kcal/mol]
47 | TTGTTCACGTGCTGCG | 0.23
48 | ACTGACACGTGTGGTT | -0.07
49 | GGTGACACGTGTTTTA | -0.03
50 | TATCTCACGTGATAGT | 0.2
51 | GTTCGCACGTGGACGG | 0.07
52 | TCCTGCACGTGGGGTG | -0.21
53 | GATCACACGTGGTTTG | 0.23
54 | ATGGACACGTGCGGTG | -0.04
55 | CGTTTCACGTGTTTTT | 0.22
56 | TGTATCACGTGCTTAA | 0.04
57 | GGAGTCACGTGCGGAG | 0.04
58 | ATTTGCACGTGTGGAG | 0.03
59 | TCTTACACGTGGCAGG | 0.19
60 | ATGAGCACGTGAGGAT | 0.05
61 | GGTCACACGTGGGGCG | 0.05
62 | ATAATCACGTGTGGTA | 0.04
63 | GACTTCACGTGTTGTG | 0.13
64 | TGGGGCACGTGGCTAG | -0.12
65 | GCATGCACGTGGGGAT | -0.09
66 | TACGTCACGTGAATTG | 0.28
67 | CTTGGCACGTGGGATC | 0.04
68 | GCTAGCACGTGCGGGG | -0.09
69 | AGTTGCACGTGAGGGA | 0.26

Row | Sequence | relative binding free energy [kcal/mol]
70 | GGGTTCACGTGTGATC | 0.39
71 | TCGATCACGTGTAGTG | 0.19
72 | TCATGCACGTGGTTAA | -0.07
73 | TTCTGCACGTGGCTTT | -0.1
74 | AGGTACACGTGTTTAT | -0.01
75 | TGGAGCACGTGTAGTC | -0.03
76 | CAATTCACGTGTTTTA | 0.25
77 | GAGGTCACGTGGTAGT | 0.09
78 | TGTAACACGTGTTTCT | -0.05
79 | TGAGGCACGTGAGTGG | 0.14
80 | TGAGTCACGTGTTTGC | 0.09
81 | AGTATCACGTGTGGTA | 0.14
82 | TTAAACACGTGGGTTT | -0.07
83 | AATTGCACGTGAGTCT | 0.23
84 | CGGATCACGTGTGAAT | 0.43
85 | TTGAACACGTGTGGAG | 0.14
86 | GACAGCACGTGGTTTT | -0.04
87 | GGTGCCACGTGAATTG | 0.16
88 | TCGATCACGTGTTGTG | -0.01
89 | TGTGGCACGTGGGGCG | -0.19
90 | CGTTGCACGTGATGAA | 0.12
91 | GCAGGCACGTGTGGTG | 0.03
92 | CTGGTCACGTGATAGG | 0.17

Row | Sequence | relative binding free energy [kcal/mol]
93 | AATATCACGTGGTGGA | 0.08
94 | TATTTCACGTGTTGAT | 0.26
95 | GTTCACACGTGTGGTA | 0.07
96 | GTGAGCACGTGTCGGC | 0.04
97 | AATTTCACGTGTAAGT | 0.28
98 | GGGGTCACGTGCTACG | 0.04
99 | GTGGTCACGTGTTAGA | 0.25
100 | ACGCGCACGTGTTGGT | -0.07
101 | GCGGTCACGTGTGATA | 0.21
102 | TTTCGCACGTGTGTTG | -0.11
103 | TGGAGCACGTGTGTGG | 0
104 | CGTGGCACGTGGTGTC | -0.2
105 | GATTACACGTGTGTGT | 0.19
106 | TGATGCACGTGGGGGT | -0.16
107 | TTTGTCACGTGCTCAG | -0.03
108 | CCAGTCACGTGATGGG | 0.19
109 | TGTATCACGTGTCGCG | 0.08
110 | TCTGACACGTGTGCGT | -0.03
111 | AGTTGCACGTGCGCTG | -0.19
112 | ACAGTCACGTGGTGGA | -0.13
113 | TGGGTCACGTGTAGAT | 0.38
114 | AGTAACACGTGCTGGG | 0.01
115 | ACCTTCACGTGGGGTT | 0.06
